The whole screen tested about 330,000 compounds, of which about 4,200 (1.3%) were called active. Inconclusive results, whose numbers are uncertain, are shown with a selection of clear calls. Calls come from the whole dose curve; as a rule, active = well fitted activation curve with a large enough effect; inconclusive = small, poorly fitted or top-dose-only effect; inactive = no such curve, though single readings can be large or run the other way. Where the call is inconclusive, the potency comes from a doubtful curve fit.
Assay: qHTS screen for small molecules that induce genotoxicity in human embryonic kidney (HEK293T) cells expressing luciferase-tagged ELG1; note: nearly all actives have a fitted effect of over 60% in size; for activity change, positive = activation: % of control where 0% means no effect
Details: HEK293T ELG1-luciferase reporter, luminescence, 16 h; series mostly up to 46 µM; activity change, positive = activation: at the top concentration
Outline: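 Genotoxic stress is detected as increased luminescence from luciferase-tagged ELG1 in HEK293T cells, measured with ONE-Glo after a 16 hr treatment at 37 °C.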
Potency is the fitted concentration of half-maximal effect; tags give direction and shape of the fitted curve.

Compound | activity change, positive = activation | Potency
CCOc1ccccc1NC(=O)c1cc(SC)ccc1Cl | inactive: -7.26% | 
O=C(Nc1nnc(-c2cccnc2)s1)c1cccs1 |  | inconclusive: 20.6 µM [activator, partial curve, poor fit]
O=C(C[C@@H]1C/C=C\C[C@H](Cc2ccc(F)cc2)C(=O)OC[C@@H](c2ccccc2)NC1=O)NCCO | inactive: 2.02% | 
O=C(CCSc1ccccc1Cl)Nc1cccc([N+](=O)[O-])c1 |  | inconclusive: 32.6 µM [activator, partial curve, poor fit]
Fc1ccc(/C=N/NC2=Nc3cccc4cccc2c34)cc1 |  | active: 11.6 µM
O=C(Cc1sc(-c2ccccc2Cl)nc1-c1ccccc1)Nc1ccccc1 |  | inconclusive: 23.1 µM [activator, partial curve, poor fit]
CC(C)COc1ccc(C(=O)NCc2ccco2)cc1 |  | inconclusive: 18.4 µM [activator, partial curve, poor fit]
COc1cc(OC)c2cc(C(=O)N/N=C/c3cccc(OC)c3O)[nH]c2c1 |  | inconclusive: 29.1 µM [activator, partial curve, poor fit]
COc1ccc(-c2csc(NC(=O)c3cc(C)on3)c2C#N)cc1OC |  | inconclusive: 5.8 µM [activator, full curve, poor fit]
CC(C)(C)c1ccc(C(=O)Nc2ccc(N3CCOCC3)cc2)cc1 | inactive: -8.83% | 
O=c1sc(N2CCN(c3ccc(F)cc3)CC2)nc2ccsc12 |  | inconclusive: 2.59 µM [activator, full curve]
Cc1cccc(/C(N)=N/OC(=O)Cc2ccccc2)c1 |  | inconclusive: 20.6 µM [activator, partial curve, poor fit]
Cc1nnc(NC(=O)CSc2ccc(-c3ccco3)nn2)s1 | inactive: 2.27% | 
O=C(Nc1ccc(-c2ccc(N3CCCCC3)nn2)cc1)c1ccco1 |  | inconclusive: 5.17 µM [activator, partial curve]
Cc1ccc([N+](=O)[O-])cc1NC(=S)NC(=O)c1cccnc1 | inactive: -2.64% | 
COc1ccc(-c2nnc(NC(=O)c3ccco3)s2)cc1 |  | inconclusive: 1.64 µM [activator, full curve]
CCc1c(C2(O)CCCCC2)[nH]c2cnccc12 | inactive: -2.72% | 
COc1ccc(-c2nc(CCNS(=O)(=O)c3ccc4c(c3)OCCO4)cs2)cc1 |  | inconclusive: 29.1 µM [activator, single point]
Cc1ccc2nc(NC(=O)CN(C)S(=O)(=O)c3cccc4nsnc34)sc2c1 |  | inconclusive: 32.6 µM [activator, partial curve, poor fit]
CN(C)c1ccc(C2Nc3ccccc3C(=O)N2CCCN2CCOCC2)cc1 (stereo not given) | inactive: 12.1% | 
COCCCn1c(SCC(=O)NNC(=O)c2cccc(O)c2)nnc1-c1ccncc1 | inactive: -0.168% | 
CC(C)CNS(=O)(=O)c1ccc(CCC(=O)N2CCN(Cc3ccccc3)CC2)cc1 | inactive: -13.3% | 
CCOC(=O)CNC(=O)CSc1nnc(NC(=O)c2ccc(S(=O)(=O)N3CCOCC3)cc2)s1 | inactive: 2.89% | 
O=C(Nc1ccc2c(c1)oc1ccccc12)C1CC1 |  | inconclusive: 18.4 µM [activator, partial curve, poor fit]

Compound | activity change, positive = activation | Potency
Brc1ccc(-c2ccc(/C=N/Nc3nc4ccccc4[nH]3)o2)cc1 |  | inconclusive: 13 µM [activator, partial curve]
CCCOc1ncnc2c1sc1nc3c(cc12)COC(C)(C)C3 |  | inconclusive: 14.6 µM [activator, partial curve, poor fit]
O=c1/c(=C\c2ccc3c(c2)OCO3)sc2n1CCCN=2 |  | active: 3.26 µM
CC1CC(C)CN(C(=O)CNC(=O)c2sc3ccccc3c2Cl)C1 (stereo not given) | inactive: -0.961% | 
CCOC(=O)c1ccc(-n2c(CCC(=O)O)ccc2-c2cccs2)cc1 | inactive: 4.65% | 
CC(C)(C)c1ccc(OCC(O)CSc2ncn[nH]2)cc1 (stereo not given) |  | inconclusive: 0.366 µM [activator, full curve, poor fit]
Cc1c(C(C)(C(=O)O)c2c(C)n(C)c3ccccc23)c2ccccc2n1C | inactive: 0.421% | 
COc1ccc2sc(NC(=O)c3ccco3)nc2c1 |  | inconclusive: 0.411 µM [activator, full curve]
COc1ccccc1NC(=O)C(=O)N/N=C(\C)CC(=O)Nc1ccccn1 | inactive: 0.107% | 
O=[N+]([O-])c1ccc(S(=O)(=O)Nc2cccc(-c3ccc(N4CCOCC4)nn3)c2)cc1 |  | inconclusive: 16.4 µM [activator, partial curve]
COc1ccc(OCC(=O)Nc2cccc(NC(=O)COc3ccc(OC)cc3)n2)cc1 |  | inconclusive: 5.17 µM [activator, partial curve]
O=C(Nc1ccccc1Cl)C1CC(=O)n2c(nc3ccccc32)N1 (stereo not given) |  | inconclusive: 29.1 µM [activator, single point]
COc1ccc(-c2nn(C)c3sc(C(=O)N4CCOCC4)cc23)cc1OC |  | inconclusive: 29.1 µM [activator, partial curve, poor fit]
COc1ccc(/C=N/NC(=O)c2ccoc2C)cc1OC |  | inconclusive: 18.4 µM [activator, partial curve, poor fit]
Cc1ccc(N=Cc2sc(O)c3ccccc23)cc1 |  | inconclusive: 7.31 µM [activator, partial curve]
O=C(O)CCC(=O)Nc1ccccc1C(=O)NCCc1ccccc1 |  | inconclusive: 20.6 µM [activator, partial curve, poor fit]
CC(C)CCN1C(=O)c2ccc(C(=O)Nc3ccccc3C(=O)O)cc2C1=O | inactive: 3.88% | 
Cc1cccc(C(=O)NCC(=O)OCC(=O)c2cc(C)n(CC3CCCO3)c2C)c1 (stereo not given) |  | inconclusive: 23.1 µM [activator, partial curve, poor fit]
O=C(N/N=C/c1ccc(OC(=O)c2ccco2)cc1)c1ccccn1 |  | inconclusive: 8.2 µM [activator, partial curve]
C[C@H](CO)N1C[C@H](C)[C@@H](CN(C)S(=O)(=O)c2ccc(F)cc2)Oc2ccc(NS(=O)(=O)c3ccccc3)cc2C1=O | inactive: -2.87% | 
Cc1cccc(NC(=O)Cn2cnc3c(oc4ccccc43)c2=O)c1C |  | inconclusive: 29.1 µM [activator, single point]
COC(=O)/C=c1/s/c(=C(/C#N)C(=O)N2CCOCC2)n(-c2ccccc2)c1=O | inactive: 1.77% | 
CCCOc1ccc(C(=O)Nc2ccc(N3CCN(C(=O)c4ccco4)CC3)cc2)cc1 |  | inconclusive: 32.6 µM [activator, partial curve, poor fit]
COCCN(CCOC)S(=O)(=O)c1ccc(C(=O)Nc2sc3c(c2C(N)=O)CCCCC3)cc1 |  | inconclusive: 18.4 µM [activator, partial curve]

Compound | activity change, positive = activation | Potency
O=C(NC1CCCCC1)c1cc(-c2cccs2)on1 |  | inconclusive: 1.83 µM [activator, partial curve, poor fit]
COc1ccc(C(=O)Nn2c(SCC(=O)NC3CCCC3)nc3ccccc3c2=O)cc1 |  | inconclusive: 0.291 µM [activator, full curve]
O=[N+]([O-])c1ccc(N/N=C/c2c[nH]c3ccccc23)cc1 | inactive: 15.3% | 
Cc1cc(C)cc(NC(=O)CCC(=O)Nc2nnc(C(C)C)s2)c1 |  | inconclusive: 23.1 µM [activator, single point]
O=C(c1ccco1)N1CCCC(Nc2ccc3c(c2)OCCO3)C1 (stereo not given) |  | inconclusive: 18.3 µM [activator, single point]
N#C/C(=C\c1ccc2c(c1)OCCO2)C(=O)NC1CCCCC1 |  | inconclusive: 18.4 µM [activator, single point]
COC(=O)c1sc(NC(=O)COc2ccccc2C)nc1C |  | inconclusive: 18.3 µM [activator, single point]
Cc1ccc(NC(=O)c2cccc3cccnc23)cc1 |  | inconclusive: 3.66 µM [activator, single point]
Cc1nc2cc3sc(C)nc3cc2s1 |  | inconclusive: 18.3 µM [activator, partial curve, poor fit]
Cc1cc(Nc2ccc(F)cc2Cl)n2ncnc2n1 |  | inconclusive: 18.4 µM [activator, single point]
COc1cc(C(C[N+](=O)[O-])c2c(N)n(C)c(=O)n(C)c2=O)ccc1O (stereo not given) |  | inconclusive: 16.4 µM [activator, partial curve, poor fit]
Cc1ccnc(NC(=O)c2cccs2)c1 |  | inconclusive: 11.6 µM [activator, partial curve, poor fit]
COc1ccc(C(CNC(=O)c2cccc(S(=O)(=O)N3CCc4ccccc43)c2)N(C)C)cc1 (stereo not given) | inactive: -4.87% | 
CCN(CC)c1ccc(C(=O)NNC(=O)c2cccn2C)cc1 |  | inconclusive: 13 µM [activator, partial curve, poor fit]
CC1CC(=O)N(CC(=O)NC2CCCCC2)c2ccccc2S1 (stereo not given) | inactive: -1.23% | 
CCCc1ccc2c(N)c(C#N)sc2n1 |  | inconclusive: 10.3 µM [activator, single point]
Cn1c(=O)n(Cc2ccccc2)c(=O)c2c1nc1n2CCCN1CCc1ccccc1 | inactive: -24.3% | 
C=C(C)C1(O)OC(=O)C=C1OC (stereo not given) |  | inconclusive: 18.3 µM [activator, partial curve, poor fit]
COc1ccc(-c2ccc(S(=O)(=O)n3nc(OC(=O)c4cccs4)cc3N)cc2)cc1 | inactive: -2.12% | 
CCn1c(C)cc(C(=O)COC(=O)c2cccnc2SC)c1C |  | active: 2.31 µM
S=C(Nc1ccc(Oc2ccc(NC(=S)NC3CCCCC3)cc2)cc1)NC1CCCCC1 | inactive: -8.3% | 
CC12CCC3c4ccc(O)cc4CCC3C1CCC2=O (stereo not given) |  | inconclusive: 13 µM [activator, partial curve, poor fit]
